This note sets out measurements from paper PMC4336329 (PLoS ONE, 2015).

Molecules are shown by their SMILES. In all, about 310,000 compounds went through this assay and about 2,200 (0.71%) showed an effect of 50% or more. The effect is printed as a negative number. Some of the results follow.

The target of this assay is human ether-à-go-go-related gene (hERG) potassium channel (human, UniProt Q12809). Description: primary screen, population patch clamp on CHO cells stably expressing hERG.
Sequence of human ether-à-go-go-related gene (hERG) potassium channel (Q12809 whole entry, looked up): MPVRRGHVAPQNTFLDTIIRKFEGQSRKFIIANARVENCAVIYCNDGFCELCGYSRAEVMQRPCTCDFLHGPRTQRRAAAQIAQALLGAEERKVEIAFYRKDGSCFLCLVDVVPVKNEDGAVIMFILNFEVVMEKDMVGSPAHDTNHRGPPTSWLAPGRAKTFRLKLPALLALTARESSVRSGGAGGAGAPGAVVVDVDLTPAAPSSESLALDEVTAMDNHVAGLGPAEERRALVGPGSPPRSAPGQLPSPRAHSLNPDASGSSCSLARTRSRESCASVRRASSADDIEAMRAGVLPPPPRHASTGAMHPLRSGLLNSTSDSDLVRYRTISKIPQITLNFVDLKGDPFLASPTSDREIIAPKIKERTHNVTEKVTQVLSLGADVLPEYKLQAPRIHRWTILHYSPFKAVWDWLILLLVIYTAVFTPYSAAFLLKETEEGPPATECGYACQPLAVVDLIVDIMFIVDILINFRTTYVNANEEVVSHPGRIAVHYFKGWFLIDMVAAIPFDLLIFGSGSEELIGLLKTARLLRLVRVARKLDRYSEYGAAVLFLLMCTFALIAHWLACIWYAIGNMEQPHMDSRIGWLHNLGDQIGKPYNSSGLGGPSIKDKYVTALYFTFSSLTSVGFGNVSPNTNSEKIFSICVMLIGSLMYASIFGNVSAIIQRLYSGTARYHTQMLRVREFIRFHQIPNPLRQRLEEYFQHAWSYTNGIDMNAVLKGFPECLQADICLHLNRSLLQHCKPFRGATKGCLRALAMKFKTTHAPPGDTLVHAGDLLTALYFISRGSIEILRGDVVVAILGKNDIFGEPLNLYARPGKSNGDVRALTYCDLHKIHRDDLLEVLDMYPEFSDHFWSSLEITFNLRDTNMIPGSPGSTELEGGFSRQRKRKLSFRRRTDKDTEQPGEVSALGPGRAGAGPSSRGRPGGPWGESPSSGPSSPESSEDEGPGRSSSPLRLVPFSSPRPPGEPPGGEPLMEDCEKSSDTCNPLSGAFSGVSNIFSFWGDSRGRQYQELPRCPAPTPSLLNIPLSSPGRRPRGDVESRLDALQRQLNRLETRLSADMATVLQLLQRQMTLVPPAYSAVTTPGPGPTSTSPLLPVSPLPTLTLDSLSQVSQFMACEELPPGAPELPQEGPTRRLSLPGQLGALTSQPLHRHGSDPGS
Consider `O=C(COC(=O)c1ccccc1SCC(=O)N1CCCC1)Nc1ccccc1`, for which the “hERG current change (%, negative = inhibition) at 1uM” value is 0.421%.
For `CC(C)c1cc(C(=O)N/N=C/c2ccoc2)cs1` the value was 8.41%; for `O=C(O)C1CCC(CN(Cc2cccc(Br)c2)C(=S)Nc2ccccc2F)CC1` (stereo not drawn), 5.23%; for `O=C(Cn1[nH]c(=O)c2ccccc2c1=O)NNC(=O)c1ccccc1`, 11.6%.
Take `CCN1C(=O)/C(=C/c2nc3ccccc3c(=O)n2-c2ccccc2)c2ccccc21`: the “hERG current change (%, negative = inhibition) at 1uM” value is 10.7%.
In the case of `O=C(CCCN1C(=O)/C(=C\c2cccs2)SC1=S)Nc1ccccn1`, the “hERG current change (%, negative = inhibition) at 1uM” value amounted to 17.7%.
With `CC(=O)CSc1ncnc2nc[nH]c12`, the “hERG current change (%, negative = inhibition) at 1uM” value is reported as 13.8%.
For `CCOc1ccc(S(=O)(=O)NCCc2cn3ccccc3n2)cc1` the value was 10.8%; for `CC(C)C1COS(=O)(=O)NC1CC(=O)SC(C)(C)C` (stereo not drawn), 11.3%; for `C/C(=N\NC(=O)c1cccc(S(=O)(=O)N2CCCC2)c1)c1ccc(C)cc1`, -7.15%.
With `CC1CCN(S(=O)(=O)c2ccc(C(=O)N3CCN(c4ccccc4F)CC3)cc2)CC1` the figure was 9.06%; with `Cc1nnc(SCc2ccccc2)n1N`, 11.6%; with `CN(C)/C=N/c1sc2c(c1C#N)CCCCC2`, 3.22%.
As for `C=CCn1c(SCC(N)=O)nc(C)cc1=O`, the “hERG current change (%, negative = inhibition) at 1uM” value came to 11.7%.
For `Cc1cc(C(F)(F)F)c(C#N)c(SCC(=O)Nc2nc3ccccc3s2)n1` the value was -2.86%; for `COc1ccc(-c2cc(-c3ccccc3)nc(Cl)n2)cc1OC`, 13%.
With `CC(C)c1cc(=O)n2[nH]c(N)nc2n1` the figure was 11.8%; with `O=C(O)c1cc(S(=O)(=O)Nc2cccc(Oc3ccccc3)c2)ccc1Br`, 15%.
Take `COc1ccc(-c2csc(NC(=O)C3CCN(C(=O)c4ccc(F)cc4)CC3)n2)cc1OC`: the “hERG current change (%, negative = inhibition) at 1uM” value stood at 1.61%.
Take `Cc1c(C(=O)N2CCN(Cc3cccs3)CC2)oc2ccccc12`: the “hERG current change (%, negative = inhibition) at 1uM” value was 1.77%.
For `Nc1c(C(=O)NCc2cccnc2)sc(=S)n1-c1ccccc1` the value was 10.9%; for `COc1ccc(CC(=O)O/N=C(\N)Cc2cccc3ccccc23)cc1`, 16%; for `Cc1cccc(-c2noc(CN(C)C(=O)c3ccoc3C)n2)c1`, 13.8%.
For `CS(=O)(=O)N(CC(=O)N1CCN(Cc2ccccc2)CC1)c1ccccc1F`, the “hERG current change (%, negative = inhibition) at 1uM” value is 0.156%.
With `c1ccc(-c2noc(-c3ccc4c(c3)OCO4)n2)cc1` the figure was -4.97%.
For `Cc1ccc(S(=O)(=O)N2CCN(C(=O)COC(=O)c3ccc(C(C)(C)C)cc3)CC2)c(C)c1` the value was 7.73%; for `CC(=O)N1N=C(c2cccc([N+](=O)[O-])c2)OC1(C)CC(=O)Nc1ccccc1` (stereo not drawn), 5.24%.
Take `CCOCC(=O)Nc1nc2ccc(OC)cc2s1`: the “hERG current change (%, negative = inhibition) at 1uM” value is 3.59%.
Turning to `FC(F)(F)c1cc(NC2CCCCC2)ccn1`, the “hERG current change (%, negative = inhibition) at 1uM” value was found to be 16.6%.
For `CC(C)(C)C(=O)Nc1ccccc1C(=O)Nc1cccnc1` the value was 6.51%; for `NC(=O)c1c(/N=C/c2cccs2)sc2c1CCCC2`, 10.9%; for `Cc1ccc(NS(=O)(=O)c2ccccc2)c2c1CC(C)(C)O2`, 4.5%.
For `O=C(O)CCN1CC2([N+](=O)[O-])CC=C(OCCO)C([N+](=O)[O-])(C1)C2` (stereo not drawn) the value was 15.2%; for `CCOC(=O)/C=C1\SCC(=O)N1CC(=O)N1CCOCC1`, 16.4%.
As to `CCC(C)NC(=O)COc1ccccc1[N+](=O)[O-]` (stereo not drawn), the “hERG current change (%, negative = inhibition) at 1uM” value was found to be 11.6%.
With `CC(C)(C)c1cc(C(=O)NCc2ccccc2)ccn1` the figure was 12.9%; with `CCOc1ccc(CCNC(=O)c2cccc(S(=O)(=O)N3CC(C)OC(C)C3)c2)cc1OCC` (stereo not drawn), 2.46%; with `COC(=O)C1=C(c2cc3ccccc3s2)C[C@@H]2CC[C@H]1N2C(=O)N1CCOCC1`, -3.23%.
With `O=C(Nc1ccc2c(c1)OCCO2)c1cnc2ccccn2c1=O` the figure was 8.81%.
For `O=C(O)c1ccccc1C(=O)NCc1ccc2c(c1)OCO2` the value was 3.77%; for `COc1ccc(N2CC(C(=O)O)CC2=O)cc1` (stereo not drawn), 18.9%.
As for `CCN(CC)S(=O)(=O)c1cccc(NC(=O)c2cc(=O)[nH]c3ccccc23)c1`, the “hERG current change (%, negative = inhibition) at 1uM” value is -4.29%.
On to `CCCn1c(=O)[nH]c(=O)c2c1nc(-c1ccc(OC(F)F)c(OC)c1)n2CCOC`, for which the “hERG current change (%, negative = inhibition) at 1uM” value stood at 2.4%.
For `CC(N=C1CC(C)(C)CC(=O)/C1=C(/O)CCCN1C(=O)c2ccccc2C1=O)C(=O)O` (stereo not drawn) the value was 11.1%; for `NC(=O)C1CCN(c2nc(-c3ccccc3)nc3ccccc23)CC1`, -23.4%.
